Experimental data from the supplement of paper PMC11876631.
Positions count from the first letter of the chain named. Names and notes keep the numbering of the source. ± gives the standard deviation of the averaged measurements. Laboratory Escherichia coli strains with one amino-acid change in an essential protein, pooled on minimal glucose agar with carbenicillin or gentamicin at twice the control MIC (plus kanamycin and chloramphenicol for the plasmids), 48 h. Fold change of barcode share against drug-free plates; higher = less susceptible. Active = above 20 in both replicates (the paper's putatively resistant). '<' = one read or none on drug, '>' = one read or none on a drug-free plate. Shares are relative, so most strains fall below 1 when a few take over. Listed are strains with at least 15 reads on both drug-free plates, and hits; most hits rest on fewer reference reads. Replicate rank correlation about 0.5. Edits are read from barcodes.

Biological target: Escherichia coli (laboratory strain)
Assay: barcode share on antibiotic plates over drug-free plates; higher = less susceptible
Experimental: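 A pool of E. coli strains, each edited to carry one amino-acid change in an essential protein, was grown for 48 h on minimal glucose agar with or without antibiotic; strain barcodes were sequenced; mean of two replicates.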

[1] = antibiotic: carbenicillin, 2× MIC (3.1 µg/mL)
[2] = antibiotic: gentamicin, 2× MIC (MIC 0.45 µg/mL)

B1: ribF V90P (protein)
chain: MKLIRGIHNLSQAPQEGCVLTIGNFDGVHRGHRALLQGLQEEGRKRNLPVMVMLFEPQPLELFATDKAPARLTRLREKLRYLAECGVDYPLCVRFDRRFAALTAQNFISDLLVKHLRVKFLAVGDDFRFGAGREGDFLLLQKAGMEYGFDITSTQTFCEGGVRISSTAVRQALADDNLALAESLLGHPFAISGRVVHGDELGRTIGFPTANVPLRRQVSPVKGVYAVEVLGLGEKPLPGVANIGTRPTVAGIRQQLEVHLLDVAMDLYGRHIQVVLRKKIRNEQRFASLDELKAQIARDELTAREFFGLTKPA
B1 was tested, and the “fold change of barcode share” value [1] was 0.275 ± 0.049 and the “fold change of barcode share” value [2] was 0.00605 ± 0.0032.

B2: ribF L91D (protein)
chain: B1 chain with P90V, L91D
With B2 the “fold change of barcode share” value [1] was 0.46 ± 0.082 and the “fold change of barcode share” value [2] was 0.008 ± 0.0021.

B3: ribF V93W (protein)
chain: B1 chain with P90V, V93W
B3 was tested, and the “fold change of barcode share” value [1] was 0.503 ± 0.088 and the “fold change of barcode share” value [2] was 0.0054 ± 0.00071.

B4: ribF V93D (protein)
chain: B1 chain with P90V, V93D
With B4 the “fold change of barcode share” value [1] was 0.976 ± 0.22 and the “fold change of barcode share” value [2] was 5.28 ± 6.1.

B5: ribF L91A (protein)
chain: B1 chain with P90V, L91A
In the case of B5, the “fold change of barcode share” value [1] is reported as 0.415 ± 0.27 and the “fold change of barcode share” value [2] is reported as 0.0069 ± 0.0077.

B6: ribF L91Q (protein)
chain: B1 chain with P90V, L91Q
With B6 the “fold change of barcode share” value [1] was 0.3 ± 0.062 and the “fold change of barcode share” value [2] was 0.00153 ± 0.00089.

B7: ribF V93Q (protein)
chain: B1 chain with P90V, V93Q
B7 was tested, and the “fold change of barcode share” value [1] was 0.343 ± 0.03 and the “fold change of barcode share” value [2] was 0.00465 ± 0.0028.

B8: ribF L91W (protein)
chain: B1 chain with P90V, L91W
For B8, the “fold change of barcode share” value [1] was 0.29 ± 0.019 and the “fold change of barcode share” value [2] was 0.00316 ± 0.0012.

B9: ribF V93P (protein)
chain: B1 chain with P90V, V93P
In the case of B9, the “fold change of barcode share” value [1] is reported as 0.298 ± 0.013 and the “fold change of barcode share” value [2] is reported as 0.00315 ± 0.0011.

B10: ribF L91P (protein)
chain: B1 chain with P90V, L91P
With B10 the “fold change of barcode share” value [1] was 0.264 ± 0.066 and the “fold change of barcode share” value [2] was 0.00233 ± 0.0019.

B11: ribF V93A (protein)
chain: B1 chain with P90V, V93A
B11 was tested, and the “fold change of barcode share” value [1] was 0.411 ± 0.28 and the “fold change of barcode share” value [2] was 0.00537 ± 0.0031.

B12: rnpA F85W (protein)
chain: MVKLAFPRELRLLTPSQFTFVFQQPQRAGTPQITILGRLNSLGHPRIGLTVAKKNVRRAHERNRIKRLTRESFRLRQHELPAMDWVVVAKKGVADLDNRALSEALEKLWRRHCRLARGS
With B12 the “fold change of barcode share” value [1] was 0.264 ± 0.077 and the “fold change of barcode share” value [2] was 0.00699 ± 0.0036.

B13: rnpA L105A (protein)
chain: B12 chain with W85F, L105A
For B13, the “fold change of barcode share” value [1] was 0.364 ± 0.11 and the “fold change of barcode share” value [2] was 0.0422 ± 0.056.

B14: rnpA V87A (protein)
chain: B12 chain with W85F, V87A
With B14 the “fold change of barcode share” value [1] was 0.345 ± 0.078 and the “fold change of barcode share” value [2] was < 0.0123.

B15: rnpA L105Q (protein)
chain: B12 chain with W85F, L105Q
With B15 the “fold change of barcode share” value [1] was 0.265 ± 0.0049 and the “fold change of barcode share” value [2] was 0.0305 ± 0.013.

B16: rnpA L105W (protein)
chain: B12 chain with W85F, L105W
B16 was tested, and the “fold change of barcode share” value [1] was 0.283 ± 0.11 and the “fold change of barcode share” value [2] was 0.0254 ± 0.013.

B17: rnpA L105D (protein)
chain: B12 chain with W85F, L105D
In the case of B17, the “fold change of barcode share” value [1] is reported as 0.348 ± 0.17 and the “fold change of barcode share” value [2] is reported as < 0.0146.
